Drawing on article PMC12136788, this text covers binding signal for 22 molecules.

Sequences and labels used below:
B1: chr5:16781720:16781826:-|CDS|ENSG00000145555|unk|FALSE|bound_elsewhere (ssRNA)
RNA: GGGAGUUCUACAGUCCGACGAUCCUUCACAGCCCCAUCAUGGAAGCUUUCGGCAAUGCGAAGACCGUGUACAACAACAACUCUAGUCGCUUUGGGAAGUUUGUUCAGCUGAACAUCUGUCAGAAAGGAAAUAUUCAGGGCGGGCAACAGAGGAUUGAGCAUCA
B2: chr2:235053981:235054083:+|3pUTR|ENSG00000130147|unk|total|mutant (ssRNA)
RNA: GGGAGUUCUACAGUCCGACGAUCCUCCUCCAUCGAGGGAGAGGCCUGAAGGGACUGCCUACUGCAGCUCGUUGCCAAUCACACCGCUUUCUAUUUGUUAAGUAUAAAUUUAAAUUUAAAAUCACUUUUUUAACGAAUGGGGGGCAACAGAGGAUUGAGCAUCA
B3: chr14:53038166:53038268:-|3pUTR|ENSG00000100523|unk|total|mutant (ssRNA)
RNA: GGGAGUUCUACAGUCCGACGAUCGAGCUUUUGGCAGAGUCUUCGGGGUUUUCCCGGUAUAAAAUCAUAUCAGCGAAGAGAGCCCGUUUGAUUUCUUUUCCCAGUUGGAUGCCUUUUAUUUAUUUCUCUUGCCUGAUUGCUCUACAACAGAGGAUUGAGCAUCA
B4: chrX:152166439:152166540:-|3pUTR|ENSG00000011677|unk|FALSE|unique (ssRNA)
RNA: GGGAGUUCUACAGUCCGACGAUCCACCACAAGCAGAUUCUCCCUGCCCACCGGCUGAACAAAGCUCCUAAGGGGUGUAUCAUUAGCUGCUGGUUGCCUUUUCAUCCAUCCUUUCCCCGUCCCCUGCUUCCUUGCCAUUGCUGGCAACAGAGGAUUGAGCAUCA
B5: chr3:69105919:69106020:+|3pUTR|ENSG00000144746|msi1|total|mutant (ssRNA)
RNA: GGGAGUUCUACAGUCCGACGAUCGUGCUGCUUCUGAUUUUUCUUGCAUUUUAAAUUCUCAGCCAACCUACAGCCAUGAUCUUCCGCACAGUGAUAUCACCAUGACUUCACAGACAUGGUCCCGAAUCUGUACCCUUACCCACACAACAGAGGAUUGAGCAUCA
B6: chr4:75597091:75597192:-|CDS|ENSG00000138769|unk|FALSE|unique (ssRNA)
RNA: GGGAGUUCUACAGUCCGACGAUCUAUAAACUAUUUAAAAUAAAAGGCUCAAAAAUUGAUGGAGAAAAAGCUGAAAAAGGCAAUAGAGCUUCAAAUGCCAGCUGUCUCCAUGACAGUAGGACAAGCCACAACAAAAUAGUGCCUCAACAGAGGAUUGAGCAUCA
B7: ENSG00000169057:stop:overlap|stop_codon|ENSG00000169057|stop_codon|NA|stop_codon (ssRNA)
RNA: GGGAGUUCUACAGUCCGACGAUCUCAAGCCUGUCGUUCCAGGACCCAGGAGGGAGAAGCAGCUGCCAGGGGAAGUCUCUUCGUAGGCGGAGGUCAGGAGUCCAAGAGGAGUGAGCAGAGUCACAGAAGCCUCUUAAAGCCUCUCAACAGAGGAUUGAGCAUCA
B8: chr5:159158860:159158961:-|CDS|ENSG00000145860|msi1|FALSE|bound_elsewhere (ssRNA)
RNA: GGGAGUUCUACAGUCCGACGAUCCCAGGAGACCUGCCCUCUGUGCCACUGCCAUCUGAAAAACUCCUCCCAGCUUCCAGGAUUAGGAACUGAGCCAGUUCUACAGCCUCAUGCUGGAGCUGAGCAAAACGUCAUGUUUCAGGACAACAGAGGAUUGAGCAUCA
B9: ENSG00000136451:be:win_2001|3pUTR|ENSG00000136451|bound_else_gene|NA|bound_elsewhere_windowed (ssRNA)
RNA: GGGAGUUCUACAGUCCGACGAUCGCUAGUGUAGAAUUGUCUGUGUUUAUUGUUUUUAUGAGUAAAUACAUGCAUUGUCAUAAUAAAAUGCAUUUCAGAGAAUAUGCAUUUUACCUUUGGGAAUAUGUUAAUUUCAGGCAGCAUCAACAGAGGAUUGAGCAUCA
B10: chr15:52550141:52550321:-|3pUTR|ENSG00000128989|msi1|total|mutant (ssRNA)
RNA: GGGAGUUCUACAGUCCGACGAUCAGAUGUCACUUCCGUAAAAUACCAAUUCCGUUUUACUUGUGGCUUAUCCCGUCCGAACUCCGCAGACUUUACUGGGACAAGUUUACUGCUCUUGCCGGAGCUCCUCUCACAAGCCGUUGUCAACAGAGGAUUGAGCAUCA
B11: chr5:90513983:90514084:+|3pUTR|ENSG00000113356|unk|FALSE|unique (ssRNA)
RNA: GGGAGUUCUACAGUCCGACGAUCAAAUACACUGAAGAUAAAGGUUAUUUCUUUUUUUAGCUUUGAAUUUGUCAUGACCAUUUUAGUCUUGCAGAUAGCAGGGCAGCCCCUUGGGGCAAGGAUUUACUCUGGGAGGUACCGUUACAACAGAGGAUUGAGCAUCA
B12: chr2:25738620:25738721:-|3pUTR|ENSG00000143970|unk|FALSE|unique (ssRNA)
RNA: GGGAGUUCUACAGUCCGACGAUCAUACAUAUUAAUGACCUGACAGUUAACAUUCUGUUGUUUAUUAUUGCCUUUCUCCACCUUAGAGAGCCAUAAAUAACUCUCUGGUGAAGUGAUUUGCUAUAAUGGGGGUGAGGAGUGGGGCAACAGAGGAUUGAGCAUCA
B13: ENSG00000174437:stop:overlap|stop_codon|ENSG00000174437|stop_codon|NA|stop_codon (ssRNA)
RNA: GGGAGUUCUACAGUCCGACGAUCAUGAGACGCUCAAGUUUGUGGCCCGCAACUACCUGGAACCUGUUCUUAGCUCAGAACUUUAGUUGUACUCUGCUUGAGGGGAAGAAGGCUCCUGCUCUGCUGUCAAUACUGGAGUAACCGCAACAGAGGAUUGAGCAUCA
B14: chr4:54297753:54297953:+|3pUTR|ENSG00000134853|msi1|total|mutant (ssRNA)
RNA: GGGAGUUCUACAGUCCGACGAUCUUUUUAUGAUGACAAUCAAAGCCGGCCUGAGAAACACUAUUUGUGACUUUUUAAACGAUCCGUGAUGUCCUUAAAAUGUGGUCUGCCAAUCUGUACAAAAUGGUCCUAUUUUUGUGAAGACAACAGAGGAUUGAGCAUCA
B15: chr7:124031896:124032004:-|CDS|ENSG00000234224|unk|FALSE|unique (ssRNA)
RNA: GGGAGUUCUACAGUCCGACGAUCUACCCGCUCAAUUUUAUGGGCCUCAUCACCCUGAUGUAUUUACCUGGCUGGAUAUUCCUUAGUGUGUACCAGGACCUAAUUUCCAACGUGUUGUGGAGGGUGCAGUACGUACCAGCUAACCAACAGAGGAUUGAGCAUCA
B16: chr1:94529602:94529703:-|3pUTR|ENSG00000117525|msi1|FALSE|unique (ssRNA)
RNA: GGGAGUUCUACAGUCCGACGAUCUGGAAGGAAAUUGGGUGCAUUUCUAGGACUUUUCUAACAUAUGUCUAUAAUAUAGUGUUUAGGUUCUUUUUUUUUUCAGGAAUACAUUUGGAAAUUCAAAACAAUUGGCAAACUUUGUAUCAACAGAGGAUUGAGCAUCA
B17: chr22:21448335:21448436:+|3pUTR|ENSG00000169635|unk|FALSE|bound_elsewhere (ssRNA)
RNA: GGGAGUUCUACAGUCCGACGAUCGCAGUCCUGGCCCCCGGCCACUGUCUCGGGGCCCACCUCUCGCCCCUCAUCUUGGUAAUUAGCCAGCCUCAGAUACUUCUGUGGGCCCUGAAGUGGGCUCUCAAGGUCAGACCAAGGUUGCAACAGAGGAUUGAGCAUCA
B18: chr7:108502517:108502634:-|CDS|ENSG00000135241|unk|total|mutant (ssRNA)
RNA: GGGAGUUCUACAGUCCGACGAUCAUUAUUCCAUAUUUAUUACGACUGAGACAAAUUAAGGAUGAAACUCUUCAGGCUGCAGUCCGAGAAAUUUUGGCCCUAAUUGGCUAUGUGGAUCCAGUGAAAGGGAGAGGAAUCCGAAUUCAACAGAGGAUUGAGCAUCA
B19: chr9:128633378:128633479:+|3pUTR|ENSG00000197694|msi1|total|mutant (ssRNA)
RNA: GGGAGUUCUACAGUCCGACGAUCCUUGCUGCAUGUCCGCUCCUCUGUGUGCUCUCACUUUCCACUGUAACCUUAAGCCUGCUCCGCUUGGAAUAAGACUCCGGAGAAAAUGGUGCUUCACUAACCCGCUUCCGGUCCAGUCACCAACAGAGGAUUGAGCAUCA
B20: chr8:103229222:103229323:+|3pUTR|ENSG00000164929|unk|FALSE|unique (ssRNA)
RNA: GGGAGUUCUACAGUCCGACGAUCUAAUUUUCUAGUAUGUCUUGAAACAUGUUCAUCUGGAAGUAUUUUCCUCCAAAGUAAUGUAGCAUGAUUUUUCAAGGAUUGUUAACAUGCCUGGGAUUGGGAAAGAUAGGACUAAAGUUGCAACAGAGGAUUGAGCAUCA
B21: chr16:18841627:18841728:-|CDS|ENSG00000157106|msi1|total|mutant (ssRNA)
RNA: GGGAGUUCUACAGUCCGACGAUCUACAAUUAAUCGCCAAGAAACACCCCGGUUCCAUGCUCGACACUAUUCUGUAACACCACCCGGAACAAGAUCAGGACUAAUCCAGUGGGCCGAUGGAGCCACACCCUUAUUUGGUCUUUACAACAGAGGAUUGAGCAUCA
B22: chr5:6668475:6668576:+|3pUTR|ENSG00000145545|unk|FALSE|unique (ssRNA)
RNA: GGGAGUUCUACAGUCCGACGAUCAUUUUUUCUAAUUUCAAAUUUACCUCUUUUGGCUAUGUCUUGCCAAGUGUGUAUGAGACUAGACUUUACAACUGUCUUUGAUGGCAUUUUCAGAACAAUAAAUGUCACAAUCCCUUCUAUCAACAGAGGAUUGAGCAUCA

The other results are listed elsewhere or left out.

This assay deals with MSI1 full-length (mouse, UniProt Q61474 1-362). In words: nsRBNS (natural sequence RNA bind-n-seq); RBNS binding buffer (assumed for nsRBNS): 25 mM Tris pH 7.5, 150 mM KCl, 3 mM MgCl2, 0.01% Triton X-100, 500 ug/ml BSA, 20 U/ml SUPERase-In, 4 C; UNK is unkempt and MSI1 is Musashi-1; names of the RNAs are library labels; protein concentration not given here; high values mean tight binding.
Chain of UniProt Q61474 (Q61474 whole entry): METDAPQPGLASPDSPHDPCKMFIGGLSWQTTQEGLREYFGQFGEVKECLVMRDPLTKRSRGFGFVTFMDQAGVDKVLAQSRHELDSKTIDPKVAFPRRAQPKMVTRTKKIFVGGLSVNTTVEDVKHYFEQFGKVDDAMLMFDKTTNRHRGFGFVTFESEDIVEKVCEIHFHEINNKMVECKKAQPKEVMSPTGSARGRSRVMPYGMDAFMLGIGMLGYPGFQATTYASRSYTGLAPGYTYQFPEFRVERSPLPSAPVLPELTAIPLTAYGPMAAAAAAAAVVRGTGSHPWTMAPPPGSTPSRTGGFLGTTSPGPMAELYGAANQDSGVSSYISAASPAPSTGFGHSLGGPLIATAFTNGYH
For B1, the binding signal is 0.402 enrichment R.
For B2 the value was 0.539 enrichment R; for B3, 0.36 enrichment R; for B4, 0.767 enrichment R.
For B5, the binding signal came to 0.461 enrichment R.
In the case of B6 it was 1.25 enrichment R; in that of B7, 0.715 enrichment R; in that of B8, 0.432 enrichment R.
In the case of B9 it was 1.18 enrichment R.
B10 had a binding signal of 0.351 enrichment R.
For B11 the value was 0.573 enrichment R.
In the case of B12 it was 0.474 enrichment R; in that of B13, 0.381 enrichment R; in that of B14, 0.286 enrichment R.
Consider B15, for which the binding signal worked out at 0.531 enrichment R.
In the case of B16 it was 9.56 enrichment R.
For B17 the value was 0.557 enrichment R.
Molecule B18 came in with a binding signal of 0.499 enrichment R.
For B19 the value was 0.462 enrichment R; for B20, 0.402 enrichment R; for B21, 0.505 enrichment R.
For B22 the value was 0.3 enrichment R.
